Test results taken from US20220193181A1 (priority 2020, published 2022).
Read-outs that look alike come from different tables or passages of the source.

Key:
[1] = system: THP-1 human macrophage cell line; assay: IL-6 and IL-10 mRNA in LPS stimulated THP-1 macrophage (qPCR); conditions: LPS 100 ng/ml, 6 hr, GSNO 10 μM, N6022 1 μM, N91115 1 μM
Description: THP-1 cells were cultured in the presence of PMA (50 ng/ml; treated for 48 hr) for differentiation into macrophages. […] The levels of IL-10 and IL-6 mRNA were analyzed by quantitative PCR (qPCR). Bars represent the means±SEM from three independent experiments. Significant differences between means of media alone and individual stimuli are indicated: *p≤0.05, **p≤0.01, ***p≤0.001 as compared to the control group. +p≤0.05, ++p≤0.01, +++p≤0.001 as compared to LPS treated group. N.S. represents not significant.

Human blood B cells = conditions: anti-IgM/IgG, rBAFF, anti-CD40 stimulated; GSNO 50 μM
Description: (§1) FIGS. 4A-C. B cell/ASC subset-specific effect of GSNO on the expression of IL-10 versus IL-6. […] Then, the numbers of total, IL-10^+, or IL-6^+ B cell/ASC subsets (Bla, Bib, Breg, transitional B cells (T1, T2), marginal zone (MZ) B cells, MZ precursor B cells (MZP), follicular B cells (FO), memory B cells, plasmablasts, and plasma cells) were analyzed by flow cytometry. Please see table 1 for the phenotyping of these subsets of cells. (FIG. 4B) Human blood B cells (Stemcell cat #: 70023) were stimulated with anti-IgM/IgG Ab (@IgM: 10 μg/ml; eBioscience #16-509985) and co-stimulated with rBAFF (100 ng/ml; R&D #2149BF) and anti-CD40 Ab (1 g/ml; Enzo #ALX805046) in the presence or absence of GSNO (50 μM/1 hr) pretreatment. 43 hr after the cells were further incubated with PMA/ionomycin/Brefeldin-A for 5 hr and cells were stained for total B cells, transitional/immature B cells, mature B cells, memory B cells, plasmablasts, or plasma cells and their expression of IL-10 and IL-6. […] (n.s.: not significant).
(§2) FIGS. 4A-C show GSNO/GSNORi-mediated regulation of IL-10 versus IL-6 in B cell/ASC subsets. […] These in vivo and in vitro data document that GSNO/GSNORi-mediated induction of IL-10 and suppression of IL-6 is not limited to human B10/Breg but to all subsets of B cells and ASCs.

Splenic B cells [2] = conditions: GSNO 50 μM; for IL-6 production / IL-10 production: ELISA
Description: Splenic B cells purified from C57BL/6 mice were stimulated with IgM-specific goat F(ab′)2 Ab (@IgM: 10 μg/ml; Invitrogen #16509285) and co-stimulated (CS) with rBAFF (100 ng/ml; R&D #2149BF) and anti-CD40 Ab (10 μg/ml; Enzo #ALX805046) with/without GSNO (50 μM) pretreatment (1 hr). After 43 hr incubation, the cells were further incubated with PMA/ionomycin/Brefeldin-A for 5 hr. (FIG. 3A) Then, the levels of IL-10 (i) and IL-6 (ii) were analyzed by ELISA. (FIG. 3B) The numbers of B cells (B220^+) (i), IL-10^+ B cells (B220^+IL-10^+) (ii), and IL-6^+ B cells (B220^+IL-6^+) (iii) were analyzed by flow cytometry. (FIG. 3C) The numbers of CD1d^hiCD5^hi B cells (B220^+) (i), IL-10^+ (ii) and IL-6^+ CD1d^hiCD5^hi B cells (B220^+) were analyzed. (FIG. 3D) The numbers of CD1d^loCD5^hi B cells (B220^+) (i), IL-10^+ (ii) and IL-6^+ CD1d^loCD5^hi B cells (B220^+) were analyzed. […] The “n” represents the number of cell cultures.
In adaptive immunity, B cells are the major source of IL-6. […] Activated B cells (CD5^hi 96) expressing high levels of CD1d are reported to produce high levels of IL-10 (so-called Breg).

THP-1 derived macrophage = assay: Secretion of pro- or anti-inflammatory cytokines in LPS stimulated THP-1 derived macrophage (ELISA); conditions: LPS 100 ng/ml, 48 hr; GSNO 10 μM, N6022 1 μM, N91115 1 μM, pretreated 1 hr; ELISA of media
Description: THP-1 cells were cultured in the presence of PMA (50 ng/ml; treated for 48 hr) for differentiation into macrophages. […] The levels of IL-10, IL-6, TNF-α and IFN-7 in the media were quantified by enzyme-linked immunosorbent assay (ELISA). Bars represent the means±SEM from three independent experiments. Significant differences between means of media alone and individual stimuli are indicated: **p≤0.01, ***p≤0.001 as compared to the control group. +p≤0.05, ++p≤0.01, +++p≤0.001 as compared to LPS treated group. N.S. represents not significant.
Macrophages are the major source of IL-6 among the innate immune system. […] GSNO as well as inhibitors of GSNOR (V6002 and N9111) inhibit the expression of proinflammatory cytokines (TNFα, IFNγ and IL-6) in LPS stimulated THP-1 cells, a human macrophage cell line.

EAE mice [3] = conditions: for blood IL-6 levels / blood IL-10 levels / number of IL-6+ B cells in the CNS and the spleen / numbers of IL-10+ B cells in the CNS and the spleen: 1 mg/kg/day/ip starting day 9; for blood IL-6 levels / blood IL-10 levels: ELISA; for number of IL-6+ B cells in the CNS and the spleen / numbers of IL-10+ B cells in the CNS and the spleen / CNS infiltration of B cells: day 21; for CNS infiltration of B cells: 1 mg/kg/day/ip starting day 9 post-immunization
Description: Therefore, the inventors investigated the efficacy of GSNO and GSNORi (N6022) in B cell mediated pathogenesis in autoimmune disorder of EAE, animal model of MS. […] B cells have been recognized as a major source of IL-10 and IL-6 in the blood in MS and EAE.

splenic B cells [4] = assay: ELISpot assay of IL-10 producing splenic B cells; assay type: cell-based, mice; conditions: 50 μM GSNO, 48 hrs
EAE mice [5] = conditions: N6022 1 mg/kg/day/ip starting day 14, day 21
Description: as §1, §2

[6] = stimulatory/co-stimulatory conditions
[7] = stimulatory/costimulatory conditions
[8] = stimulatory/costimulatory conditions, flow cytometry

| SMILES | mRNA levels of IL-6 [1] | mRNA levels of IL-10 [1] | expression of anti-inflammatory cytokine IL-10 (THP-1 derived macrophage) | expression of proinflammatory cytokine IFNγ (THP-1 derived macrophage) | expression of proinflammatory cytokine IL-6 (THP-1 derived macrophage) | expression of proinflammatory cytokine TNFα (THP-1 derived macrophage) | blood IL-6 levels (EAE mice [3]) | blood IL-10 levels (EAE mice [3]) | number of IL-6+ B cells in the CNS and the spleen (EAE mice [3]) | numbers of IL-10+ B cells in the CNS and the spleen (EAE mice [3]) | CNS infiltration of B cells (EAE mice [3]) | also measured |
| --- | --- | --- | --- | --- | --- | --- | --- | --- | --- | --- | --- | --- |
| N[C@@H](CCC(=O)N[C@@H](CSN=O)C(=O)NCC(=O)O)C(=O)O [GSNO, S-nitrosoglutathione] | down regulate | upregulating | induced | inhibit | inhibit | inhibit | decreased | further increased | decreased | increased | decreased | IL-6+ cells in all subsets of B cells and ASCs (Human blood B cells): decreased; frequency of IL-10+ cells in all subsets of B cells and ASCs (Human blood B cells): increased; number of total B cells (Human blood B cells): no obvious effect; numbers of ASCs (plasmablasts and plasma cells) (Human blood B cells): increasing; numbers of some subsets of B cells (e.g., immature B cells and memory B cells) (Human blood B cells): decreased; number of total B cells (B220+) (Splenic B cells [2]; both quiescent and stimulatory/costimulatory conditions, flow cytometry): slightly decreased; IL-6 production (Splenic B cells [2]; quiescent conditions): did not affect; IL-10 production (Splenic B cells [2]; quiescent conditions): did not affect; number of IL-6+ CD1dhiCD5hi B cells (Splenic B cells [2]; stimulation/co-stimulation): decreased; number of IL-10+ CD1dhiCD5hi B cells (Splenic B cells [2]; stimulation/co-stimulation): drastically increased; number of total CD1dhiCD5hi B cells (Splenic B cells [2]; stimulation/co-stimulation): decreased; IL-6 production (Splenic B cells [2]; [6]): decrease; IL-10 production (Splenic B cells [2]; [6]): increase; number of IL-6+ CD1dloCD5hi B cells (Splenic B cells [2]; [7]): decreasing; number of IL-10+ CD1dloCD5hi B cells (Splenic B cells [2]; [7]): increased; IL-6+ B cells (Splenic B cells [2]; [8]): decreasing; IL-10+ B cells (Splenic B cells [2]; [8]): drastically increased; number of IL-10+ B cells (splenic B cells [4]; B cells from EAE mice, anti-B220 and MOG35-55 coated plates): increased; number of IL-10+ B cells (splenic B cells [4]; B cells from control mice (non-EAE)): did not increase |
| Cc1cc(C(N)=O)ccc1-n1c(CCC(=O)O)ccc1-c1ccc(-n2ccnc2)cc1 [N6022] | down regulate | upregulating | induced | inhibit | inhibit | inhibit | decreased | further increased | decreased | increased | decreased | frequency of IL-6+ cells in almost all B cell and ASC subsets (EAE mice [5]; CNS as well as spleen): decreased; frequency of IL-10+ cells in almost all B cell and ASC subsets (EAE mice [5]; CNS as well as spleen): increased; memory B cells in the spleen (EAE mice [5]): most dramatic reduction; numbers of B cells and ASCs in the CNS (EAE mice [5]): decreased; numbers of several subsets of B cells (e.g., Breg and memory B cells) in the spleen (EAE mice [5]): decreased; numbers of the most subsets of B cells and ASCs in the CNS (EAE mice [5]): decreased; splenic ASCs (plasmablasts and plasma cells) (EAE mice [5]): increased |
| O=C(O)c1ccc(-c2ccc3cc(O)ccc3n2)c(Cl)c1 [N91115] | down regulate | upregulating | induced | inhibit | inhibit | inhibit | – | – | – | – | – | – |
